Reference: PMC4336329 (PLoS ONE, 2015)
Hit rate of the full screen: of about 310,000 compounds, about 2,200 (0.71%) showed an effect of 50% or more. Effects have a minus sign here. This is one part of the list.

target: human ether-à-go-go-related gene (hERG) potassium channel (human, UniProt Q12809); experiment: primary screen, population patch clamp on CHO cells stably expressing hERG
Sequence (Q12809 whole entry, looked up): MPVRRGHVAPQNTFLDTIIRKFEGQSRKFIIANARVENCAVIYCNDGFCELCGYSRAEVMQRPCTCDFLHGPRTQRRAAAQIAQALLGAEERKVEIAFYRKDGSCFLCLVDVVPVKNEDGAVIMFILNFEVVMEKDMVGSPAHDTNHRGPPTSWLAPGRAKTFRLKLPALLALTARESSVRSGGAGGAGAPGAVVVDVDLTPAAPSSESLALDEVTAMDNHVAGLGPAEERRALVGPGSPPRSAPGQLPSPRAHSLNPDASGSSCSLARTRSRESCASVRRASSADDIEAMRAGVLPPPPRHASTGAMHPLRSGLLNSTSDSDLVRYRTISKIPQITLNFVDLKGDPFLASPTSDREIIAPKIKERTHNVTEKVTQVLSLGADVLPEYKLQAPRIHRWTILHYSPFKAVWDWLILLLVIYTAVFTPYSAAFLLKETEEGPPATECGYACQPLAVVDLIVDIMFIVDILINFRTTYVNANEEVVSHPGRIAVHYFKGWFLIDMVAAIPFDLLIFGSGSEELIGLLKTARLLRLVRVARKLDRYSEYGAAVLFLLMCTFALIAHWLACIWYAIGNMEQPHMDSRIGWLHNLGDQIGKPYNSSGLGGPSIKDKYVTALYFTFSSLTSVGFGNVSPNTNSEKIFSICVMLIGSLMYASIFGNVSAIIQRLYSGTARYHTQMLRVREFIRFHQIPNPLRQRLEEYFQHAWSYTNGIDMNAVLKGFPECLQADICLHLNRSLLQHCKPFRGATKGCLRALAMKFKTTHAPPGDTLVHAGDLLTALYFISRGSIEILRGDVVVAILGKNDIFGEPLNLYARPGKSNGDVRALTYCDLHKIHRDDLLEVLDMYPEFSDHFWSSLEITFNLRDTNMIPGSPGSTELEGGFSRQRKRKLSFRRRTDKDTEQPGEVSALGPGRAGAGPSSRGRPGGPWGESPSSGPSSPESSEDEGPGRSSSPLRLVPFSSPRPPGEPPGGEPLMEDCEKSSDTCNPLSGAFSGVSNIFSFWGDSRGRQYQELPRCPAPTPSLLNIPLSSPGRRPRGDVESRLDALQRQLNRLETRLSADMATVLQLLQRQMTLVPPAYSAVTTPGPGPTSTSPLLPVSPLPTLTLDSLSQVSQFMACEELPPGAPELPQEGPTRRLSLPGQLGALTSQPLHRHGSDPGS

SMILES	hERG current change (%, negative = inhibition) at 1uM
O=c1c2ccccc2ncn1Cc1cccc2ccccc12	5.31%
Cc1ccc(S(=O)(=O)NCC(=O)NCC(=O)OCC(=O)NC(=O)NC(C)(C)C)cc1C	15.9%
O=C(COC(=O)Cn1[nH]c(=O)c2ccccc2c1=O)Nc1ccc2c(c1)OCO2	5.51%
Cc1ccccc1NC(=O)CCCN1C(=O)C2CC=CCC2C1=O (stereo not shown)	14.5%
O=S(=O)(c1ccccc1)c1ncc(C(F)(F)F)cc1O	1.56%
CN(C)CCC(=O)c1cccc(Br)c1.Cl	18.6%
Nc1c2c(nc3ccn(-c4ccccc4)c(=O)c13)CCCCC2	-37.1%
Cc1ccc(-c2cc(C(=O)NCc3cccnc3)no2)cc1	12.1%
CCOC(=O)c1csc(NC(=O)C(C)(C)C)n1	11%
CC1Cc2ccccc2N1S(=O)(=O)c1c(N)n(C)c(=O)n(C)c1=O (stereo not shown)	3.9%
C=CCOC(=O)C1=C(C)Nc2nnnn2C1c1cc(OC)ccc1OC (stereo not shown)	8.87%
CC(=O)/C=C/c1ccc(C)o1	3.67%
COc1ccc(CCNC(=O)CCOc2cc(C)ccc2C)cc1OC	3.03%
COc1ccc(CN2CCNCC2)cc1.Cl	14%
CN1CC(=O)Nc2ccccc2C1=O	19.9%
O=C1CC(C(=O)Nc2ccc(Cl)cc2)S/C(=N\N=C\c2ccco2)N1 (stereo not shown)	12.4%
CCOC(=O)C1C2C=CC3(CN(C4CCCC4)C(=O)C13)O2 (stereo not shown)	7.17%
O=C(NCc1ccccc1)N1CCOc2ccccc21	13%
O=C(CSc1nc(-c2ccccc2)nc2ccc(F)cc12)Nc1cccc(C(=O)O)c1	6.58%
O=S(=O)(c1ccc(Oc2ncnc3scc(-c4ccccc4)c23)cc1)N1CCOCC1	11%

SMILES	hERG current change (%, negative = inhibition) at 1uM
Cc1c(Cl)cccc1NC(=O)CN1CCC(NC(=O)C2CCCCC2)CC1	8.26%
CN1C(c2ccccc2)CCOS1(=O)=O (stereo not shown)	9.76%
CCOc1ccc(N2CC(C(=O)NCCN3C(=O)S/C(=C\c4ccc(OC)c(OC)c4)C3=O)CC2=O)cc1 (stereo not shown)	-7.01%
CCN(CC)c1ccc(S(=O)(=O)N2CCOCC2)cc1NC(=O)c1cc(=O)c2ccccc2o1	11.3%
Cc1onc(-c2ccccc2)c1C(=O)Nc1ccc2c(C)cc(=O)oc2c1	2.13%
Cc1ccc(NC(=O)C2CCCN2C(=O)Oc2ccccc2)cc1 (stereo not shown)	0.401%
CC(=O)c1ccc(NC(=O)c2ccc3snnc3c2)cc1	6.06%
CSc1nc2ccc(Cl)cc2[nH]1	4.95%
Cc1cc(NC(=O)CCC(=O)N(CC(=O)NC2CCCC2)c2ccc(F)c(Cl)c2)no1	15.4%
CSc1nc(C)cc(SC(C(C)=O)C(=O)Nc2ccccc2)n1 (stereo not shown)	13.3%
COCCN(C(=O)c1ccccc1)c1nnc(-c2cccnc2)s1	10.5%
O=C(NCc1ccccc1)c1ccc2c(c1)S(=O)(=O)c1cc(Cl)ccc1C2=O	0.584%
COc1cccc(CN2CC(C(=O)N3CCN(C(C)C)CC3)CCC2=O)c1 (stereo not shown)	9.91%
C=CCSc1nnc(CCCCCN2C(=O)c3cccc4cccc(c34)C2=O)o1	1.07%
O=C1CC(c2ccccc2)Cc2nc(NC3CC3)ncc21 (stereo not shown)	-2.48%
COc1ccccc1CNC(=O)c1oc2ccc(S(=O)(=O)N3CCOCC3)cc2c1C	-7.46%
CC1=NN(c2ccccc2)C(=O)C1	28.7%
Cc1cccc(C)c1NC(=O)C1(N(Cc2ccco2)C(=O)Cn2nnnc2N)CCCCC1	9.09%
COc1ccc(N2CCC(CNC(=O)Nc3ccccc3)C2)cc1 (stereo not shown)	2.4%
N#Cc1c(N)c(C(=O)c2ccccc2)n2c1CCCC2	1.07%

SMILES	hERG current change (%, negative = inhibition) at 1uM
O=C1NC(=O)C(=Cc2ccc(Oc3ccc([N+](=O)[O-])cc3)cc2)C(=O)N1	-7.79%
O=C(Cn1c(=O)c2cccn2c2ccccc21)Nc1ccc(F)cc1F	19.1%
COc1cccc2sc(NC(=O)c3ccc(S(=O)(=O)N4CCOCC4)cc3)nc12	10.5%
N#C/C(=C\c1ccc(OCc2ccc(C(=O)O)cc2)cc1)C(=O)NCc1ccccc1	11.1%
CNc1c(NS(=O)(=O)c2ccc(Br)cc2)c(=O)oc2ccccc12	11.1%
O=c1ccc2cc(S(=O)(=O)Nc3ccccc3F)ccc2o1	10.6%
COC(=O)C(Cc1ccccc1)NCC(=O)Nc1cccc(Cl)c1C (stereo not shown)	4.66%
CCOC(=O)c1cnn(-c2cc(Oc3cccc(C)c3)ncn2)c1N	8.49%
CN(Cc1ccc(Cl)s1)C(=O)CNC(=O)CNC(=O)c1ccc(Cl)cc1Cl	-18.6%
Cc1ccc(C(=O)OCC2OC3OC(C)(C)OC3C2O)cc1 (stereo not shown)	10.6%
CCOC(=O)C1=C(Nc2cccc(Cl)c2)OCC1=O	1.09%
Cc1ccc(-n2c(N)c(C(=O)Nc3c(C)n(C)n(-c4ccccc4)c3=O)c3nc4ccccc4nc32)cc1C	10.7%
CC/C(O)=C1\C(=O)CCCC1=NCCc1c(C)[nH]c2ccc(C)cc12	0.659%
Cc1cc(NC(=O)COC(=O)c2cccc(S(=O)(=O)N(C)C3CCCCC3)c2)no1	-2.93%
O=C(NCCCN1CCOCC1)c1ccc([N+](=O)[O-])cc1[N+](=O)[O-]	10.6%
O=C(O)c1cccc(N=NN2CCOCC2)c1	12.1%
COc1ccc(Nc2nc(N)nc(C(F)(F)F)n2)c(OC)c1	9.6%
COc1ccc(S(=O)(=O)NCCC(C)C)cc1OC	7.71%
